About 6,500 (4.3%) of roughly 150,000 compounds were called active. Inconclusive means that the source gave no clear call. Such entries were picked first, then a sample of the others. The call rests on the fitted dose curve; in most records, active means well fitted inhibition curve with a large enough effect (not every such curve was filed as active); inconclusive means small, poorly fitted or top-dose-only effect, or another doubt; inactive means no such curve, though single readings can be large or run the other way. Potencies of inconclusive entries are left out as doubtful fits.
Target: 15-hydroxyprostaglandin dehydrogenase [NAD(+)] (Homo sapiens) (UniProt P15428)
Assay: qHTS Assay for Inhibitors of HPGD (15-Hydroxyprostaglandin Dehydrogenase)
Details: purified HPGD, NADH fluorescence kinetic, PGE2 substrate; activity change, negative = inhibition: stronger effect = lower value
Method in brief: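 NADH formation kinetics: reaction with 30 uM PGE2 and 1 mM NAD+ (final), 20 nM enzyme, Tris-HCl pH 8 with Tween 20, after 15 min compound preincubation at room temperature. Fluorescence change, last versus first of five reads.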
On the % scale 0 is the no-effect control and ±100 the full control effect; potency means the concentration at half of the fitted maximal effect; tags describe the fitted curve by direction and shape.

UniProt P15428, sequence (P15428 whole entry, looked up): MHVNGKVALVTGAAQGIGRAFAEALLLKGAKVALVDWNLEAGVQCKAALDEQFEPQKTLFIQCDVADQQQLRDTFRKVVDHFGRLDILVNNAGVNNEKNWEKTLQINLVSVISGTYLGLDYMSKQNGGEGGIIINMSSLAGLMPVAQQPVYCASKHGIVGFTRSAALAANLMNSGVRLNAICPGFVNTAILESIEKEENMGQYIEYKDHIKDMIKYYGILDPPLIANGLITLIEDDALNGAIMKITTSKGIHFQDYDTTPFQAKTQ

Row | SMILES | Potency | activity change, negative = inhibition
1 | CCc1cc2c(=O)n(-c3ccccc3)c(=S)[nH]c2s1 | inconclusive [inhibitor, partial curve] | 
2 | COc1ccc2[nH]c(C(=O)O)c(CCC(=O)O)c2c1 | inconclusive [inhibitor, partial curve] | 
3 | Cc1ccc(Oc2nc3ccccc3n3cccc23)cc1 | inconclusive [inhibitor, single point] | 
4 | Cc1ccc(C)c2[nH]c(=O)c(C(c3nnnn3Cc3ccccc3)N3CCc4ccccc4C3)cc12 (configuration not stated) | inconclusive [inhibitor, single point] | 
5 | COCCn1c(=O)c(-c2ccc(OC)cc2)nc2cnc(Oc3ccccc3)nc21 | inconclusive [inhibitor, partial curve] | 
6 | COC(=O)CCC(=O)OC1(C)C(=O)C=C2C=C(C3CC3)N(c3cccc(C#N)c3)C=C2C1=O (configuration not stated) | inconclusive [inhibitor, partial curve] | 
7 | CC(C)C(C(=O)O)N1C(=O)/C(=C/C=C/c2ccco2)SC1=S (configuration not stated) | active: 3.55 µM | 
8 | O=C(CNC(=O)c1ccc(-c2ccccc2)cc1)OCc1ccc(Br)cc1 | inconclusive [inhibitor, partial curve] | 
9 | COc1ccccc1NC(=S)c1ccccc1 | active: 22.4 µM | 
10 | CCO/C=C1/C(=O)N(Cc2ccccc2)C(=O)c2ccccc21 | inconclusive [inhibitor, partial curve] | 
11 | COCCN(C(=O)Cn1nnc2ccccc21)C(C(=O)NC1CCCC1)c1cc(OC)ccc1OC (configuration not stated) |  | inactive: -12%
12 | CCC(=O)Nc1ccc(NC(=S)Nc2ccccc2)cc1 |  | inactive: -2.84%
13 | Cc1ccc2nc(NCCO)nc(-c3ccccc3)c2c1 | inconclusive [inhibitor, single point] | 
14 | CC1=NN(c2ccc(C)cc2C)C(=O)C1C(c1ccccc1)C1C(=O)N(c2ccc(C)cc2C)N=C1C (configuration not stated) | inconclusive [inhibitor, single point] | 
15 | COc1ccccc1Oc1coc2c(CN(C)C)c(O)ccc2c1=O | inconclusive [inhibitor, partial curve] | 
16 | Cc1cc(=O)oc2cc(OCC3CC(c4ccc(Br)cc4)=NO3)ccc12 (configuration not stated) | inconclusive [inhibitor, partial curve] | 
17 | COc1ccc(S(=O)(=O)N2CCCC2C(=O)Nc2nnc(-c3cccnc3)s2)cc1 (configuration not stated) | inconclusive [inhibitor, partial curve] | 
18 | CC(C)Cn1c(N)c(C(=O)COC(=O)c2cc(-c3ccccc3)nc3ccccc23)c(=O)n(C)c1=O | inconclusive [inhibitor, single point] | 
19 | Cc1cc([N+](=O)[O-])nn1CCCC(=O)Nc1sc2c(c1C(N)=O)CCC(C)C2 (configuration not stated) | active: 15.8 µM | 
20 | CN(CC1COc2ccccc2O1)C(=S)Nc1ccccc1F (configuration not stated) | inconclusive [inhibitor, single point] | 
21 | Cn1c(Cl)cnc1C(O)c1ccccc1 (configuration not stated) |  | inactive: -8.42%

Row | SMILES | Potency | activity change, negative = inhibition
22 | COc1ccccc1NS(=O)(=O)c1cc(NC(=O)/C=C/c2cccs2)ccc1N1CCOCC1 | inconclusive [inhibitor, partial curve] | 
23 | CC(=O)c1cc(F)c(N2CCN(C(=O)Cc3ccccc3)CC2)cc1C | active: 22.4 µM | 
24 | CC(C)c1ccc(OCc2cccc(C(=O)N/N=C/c3cccnc3)c2)cc1 | inconclusive [inhibitor, partial curve] | 
25 | CCOc1ccc2oc(-c3ccccc3)c(C(=O)N(C)C)c2c1 | inconclusive [inhibitor, partial curve] | 
26 | CCCC1(C(=O)OC)C=C2C(=C(c3ccccc3)C(=O)C2C)CN1 (configuration not stated) |  | inactive: -19.2%
27 | COc1ccc2nc(SCc3ccccc3)nc(C)c2c1 | inconclusive [inhibitor, partial curve, poor fit] | 
28 | O=C(CSc1nc2cc(S(=O)(=O)N3CCOCC3)ccc2o1)NC1CCCc2ccccc21 (configuration not stated) | active: 8.91 µM | 
29 | O=C(CSc1nc2ccccc2[nH]1)N=Nc1c(O)[nH]c2ccccc12 | inconclusive [inhibitor, partial curve, poor fit] | 
30 | Cc1ccc(/C=N\NC(=O)C2COc3cc4ccccc4cc3O2)o1 (configuration not stated) | active: 14.1 µM | 
31 | Cc1ccc(-n2c3nc(=O)[nH]c(=O)c-3cc3c(C)nn(-c4ccccc4)c32)c(C)c1 | inconclusive [inhibitor, partial curve] | 
32 | CC(C)OC(=O)c1cc(C(=O)c2cc(F)ccc2O)coc1=N | inconclusive [inhibitor, partial curve] | 
33 | Cc1onc(-c2ccccc2)c1C(=O)N1CC(C)OC(C)C1 (configuration not stated) |  | inactive: -7.63%
34 | O=Cc1cn(-c2ccccc2)nc1-c1cc2ccccc2oc1=O | inconclusive [inhibitor, single point] | 
35 | CCOC(=O)c1sc2nc(C3CC3)cc(-c3ccc(OC)cc3)c2c1N | inconclusive [inhibitor, partial curve] | 
36 | O=[N+]([O-])c1ccc(Cl)c(CNc2ncnc3c2ncn3[C@@H]2CCCCO2)c1 | active: 3.55 µM | 
37 | Cc1ccc(S(=O)(=O)NCC23C=CC(O2)C2C(=O)N(c4ccccc4)C(=O)C23)cc1 (configuration not stated) | inconclusive [inhibitor, single point] | 
38 | CSc1ccccc1-c1nnc(-c2ccc(Cl)cc2Cl)o1 | inconclusive [inhibitor, partial curve] | 
39 | Oc1ccc(-c2nc(=S)[nH][nH]2)cc1 | inconclusive [inhibitor, partial curve] | 
40 | Cc1ccc(-n2[nH]c(C)c(C=Nc3ccc(S(=O)(=O)Nc4nccs4)cc3)c2=O)cc1 | inconclusive [inhibitor, partial curve] | 
41 | O=C1c2cccc3cccc(c23)C(=O)N1OS(=O)(=O)c1ccc(Br)cc1 | inconclusive [inhibitor, partial curve] | 
42 | CCn1nnnc1-c1ccc(OC)c(S(=O)(=O)NCc2ccccc2)c1 | active: 20 µM | 

Reference: PubChem BioAssay AID894 (National Center for Advancing Translational Sciences (NCATS), 2007)
